Measured values taken from PubChem BioAssay AID2147 (National Center for Advancing Translational Sciences (NCATS), 2009).
Among all 230,000 compounds or so, about 3,600 (1.6%) were called active. This list was built around the results that the source calls inconclusive (neither active nor inactive); the mix of calls is not that of the screen. Calls follow the shape of the dose curve; as a rule, active = well fitted inhibition curve with a large enough effect (not every such curve was filed as active); inconclusive = small, poorly fitted or top-dose-only effect, or another doubt; inactive = no such curve, though single readings can be large or run the other way. Where the call is inconclusive, the potency comes from a doubtful curve fit.

Each molecule was assayed against Lysine-specific demethylase 4E (Homo sapiens) (UniProt B2RXH2) (assay: qHTS Assay for Inhibitors of Human Jumonji Domain Containing 2E (JMJD2E)). Settings: JMJD2E catalytic domain, FDH-coupled NADH fluorescence (FDH is formaldehyde dehydrogenase); series mostly up to 57.1 µM; activity change, negative = inhibition: at the top concentration.
Sequence of UniProt B2RXH2 (B2RXH2 whole entry, looked up, the tested form may be a part): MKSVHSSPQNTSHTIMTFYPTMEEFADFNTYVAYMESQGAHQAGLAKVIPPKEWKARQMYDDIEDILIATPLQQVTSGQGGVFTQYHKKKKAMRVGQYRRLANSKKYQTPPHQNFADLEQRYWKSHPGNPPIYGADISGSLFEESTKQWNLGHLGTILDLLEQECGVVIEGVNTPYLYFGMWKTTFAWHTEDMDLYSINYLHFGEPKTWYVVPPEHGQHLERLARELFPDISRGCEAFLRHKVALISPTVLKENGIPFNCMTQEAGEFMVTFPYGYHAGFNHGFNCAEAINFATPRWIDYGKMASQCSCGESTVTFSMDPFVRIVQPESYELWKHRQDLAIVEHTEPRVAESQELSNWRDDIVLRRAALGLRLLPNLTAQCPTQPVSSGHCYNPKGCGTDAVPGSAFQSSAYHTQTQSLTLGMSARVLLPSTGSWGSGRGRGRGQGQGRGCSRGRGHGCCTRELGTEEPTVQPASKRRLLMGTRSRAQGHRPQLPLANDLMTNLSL
Also: nearly all actives have a fitted effect of over 50% in size.
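For activity change, negative = inhibition in this document: 0% = wells with enzyme and -100% = buffer wells without enzyme.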
Potency is read from the fitted curve at half-maximal effect; tags tell the direction and shape of the fitted curve.

SMILES	activity change, negative = inhibition	Potency
CCc1cc2cc(C)cc(C)c2[nH]c1=S	inactive: 4.93%	
c1ccc(-c2cn3c(n2)CCc2ccc4cccnc4c2-3)cc1		inconclusive: 28.2 µM [inhibitor, partial curve]
O=C(NCc1ccc2c(c1)OCO2)c1ccc(N2CCCCCC2)c([N+](=O)[O-])c1	inactive: -0.47%	
Cn1cc([N+](=O)[O-])c(C(=O)Nc2nc(-c3ccc(Cl)cc3)cs2)n1	inactive: -0.596%	
CCCOc1ccc(N2C(=O)CC(N(Cc3ccc(OC)cc3)C(=S)Nc3ccccc3)C2=O)cc1 (stereo not drawn)	inactive: -1.14%	
COc1cccc(C2C(C#N)=C(N)Oc3cc(C)[nH]c(=O)c32)c1OC (stereo not drawn)	inactive: 2.47%	
CCOC(=O)N1CCC(N2CCCC(C(=O)c3cc(F)ccc3OC)C2)CC1 (stereo not drawn)		inconclusive: 35.5 µM [inhibitor, partial curve]
COc1ccccc1-c1csc(NC(=O)c2cc(-c3cccs3)nc3ccccc23)n1		inconclusive: 39.8 µM [inhibitor, single point]
CCOc1ccc(CN2CCN(C(=O)c3cccc(F)c3)CC2)cc1		inconclusive: 28.2 µM [inhibitor, single point]
O=c1oc2cc(O)ccc2c2c1CCCC2		inconclusive: 31.6 µM [inhibitor, partial curve]
CCOC(=O)c1cnn2c(C(F)(F)F)cc(-c3ccco3)nc12		inconclusive: 28.2 µM [inhibitor, partial curve]
Cc1ccc(C(=O)C2CCN(C(=S)NCC3CCCO3)CC2)cc1 (stereo not drawn)	inactive: -1.41%	
Nn1c(C2COc3ccccc3O2)n[nH]c1=S (stereo not drawn)		inconclusive: 35.5 µM [inhibitor, single point]
C=CCN=c1scc(-c2ccco2)n1/N=C/c1ccc(O)c(O)c1O		active: 11.2 µM
COc1ccc(C2(O)CN(c3ccccc3)C3=[N+]2CCS3)cc1OC (stereo not drawn)		inconclusive: 28.2 µM [inhibitor, single point]
COc1cccc(C(=O)N2CCN(Cc3ccc4c(c3)OCO4)CC2)c1OC		inconclusive: 39.8 µM [inhibitor, single point]
O=C(Nc1ccc2[nH]c(=S)sc2c1)c1ccccc1	inactive: -29.2%	
O=C(NCC1OCCCN1S(=O)(=O)c1cc(F)ccc1F)C(=O)NC1CCCCCC1 (stereo not drawn)	inactive: -3.61%	
CCc1nnc(NC(=O)CN2CCN(c3nc(-c4ccccc4)cs3)CC2)s1	inactive: -0.265%	
Oc1c(I)cc(I)c2cccnc12		active: 14.1 µM
COC(=O)CCC(=O)c1oc2ccc(Br)cc2c1N		inconclusive: 25.1 µM [inhibitor, partial curve]
COCc1cc(=O)n2[nH]c(C(C)(C)C)cc2n1		inconclusive: 31.6 µM [inhibitor, partial curve]
CCc1c(C)c(C#N)c2nc3ccccc3n2c1NCc1ccccn1		inconclusive: 25.1 µM [inhibitor, partial curve]
O=C(CSc1nc2ccccc2s1)NC1CCCc2ccccc21 (stereo not drawn)	inactive: -7.4%	

SMILES	activity change, negative = inhibition	Potency
COc1ccc2cc(C(=O)Nc3ccc(O)cc3)sc(=O)c2c1OC	inactive: 6.91%	
O=C(OCC(=O)N1CCN(C(=O)c2ccco2)CC1)c1cc(S(=O)(=O)Nc2ccc(Cl)cc2)ccc1O		inconclusive: 28.2 µM [inhibitor, partial curve]
Cc1cc2oc3c(c(=O)c2cc1C)C(c1ccc(F)cc1)N(CCCN1CCOCC1)C3=O (stereo not drawn)	inactive: -3.28%	
O=C(c1cccc(Cl)c1)N1CCN(C2CCCCCC2)CC1		inconclusive: 39.8 µM [inhibitor, single point]
Cc1cc(NC(=O)Nc2cccc3ccccc23)no1		inconclusive: 39.8 µM [inhibitor, single point]
C=CCn1c(=O)c(C(=O)Nc2ccccc2S(N)(=O)=O)c(O)c2ccccc21		inconclusive: 28.2 µM [inhibitor, single point]
O=C(CSCC(=O)Nc1ccccc1)N/N=C/c1c(O)ccc2ccccc12	inactive: 7.93%	
O=C(COc1ccc(Br)cc1)OCc1nnc(-c2ccccc2)o1	inactive: -0.738%	
CSCCC(NC=C1C(=O)OC(C)(C)OC1=O)C(=O)O (stereo not drawn)		inconclusive: 28.2 µM [inhibitor, single point]
Cc1ccc(-c2ccc(/C=N/N3C(=O)C4C5C=CC(C6CC56)C4C3=O)o2)c([N+](=O)[O-])c1 (stereo not drawn)	inactive: -4.83%	
Cc1ccc(-c2c3c([nH]c(=S)c2C#N)CCCC3)o1		active: 28.2 µM
O=C(CSC1=NCCS1)N1CCN(c2ccc(Cl)cc2)CC1	inactive: 4.72%	
Cc1ccc(S(=O)(=O)c2ccccc2)cc1S	inactive: 4.12%	
CCC(C)(C)n1nnnc1CN(Cc1cc2cc(OC)ccc2[nH]c1=O)C1CCCC1		inconclusive: 28.2 µM [inhibitor, single point]
COc1ccc(/C=C/c2nnc(NC(=O)CSc3ccc(C)cc3)s2)cc1		inconclusive: 12.6 µM [inhibitor, partial curve]
O=C1/C(=C/c2ccccc2)NC(=S)N1C(c1ccccc1)c1ccccc1		inconclusive: 35.5 µM [inhibitor, single point]
O=C(O)c1ccccc1NCc1ccncc1		inconclusive: 31.6 µM [inhibitor, partial curve]
C#C[C@]1(O)CC[C@@H]2[C@H]3CCC4=CCCC[C@@H]4[C@@H]3CC[C@@]21C	inactive: -4.72% [at 25.5 µM]	
O=S(=O)(c1ccc(F)cc1)N1CCN(c2ncnc3c2cnn3-c2ccccc2)CC1		inconclusive: 35.5 µM [inhibitor, single point]
CCCCc1c(O)c2ccccc2[nH]c1=O		inconclusive: 35.5 µM [inhibitor, partial curve]
Cc1ccc2c(ccc[n+]2CC(=O)c2ccccc2)c1		inconclusive: 25.1 µM [inhibitor, partial curve]
COc1c(C(=O)Nc2ccc3[nH]c(=O)[nH]c3c2)cc2ccccc2c1Br		inconclusive: 28.2 µM [inhibitor, partial curve]
CCN1C(=O)C2(C(C(=O)c3cc4ccccc4o3)=C(O)C(=O)N2CCCN2CCOCC2)c2ccccc21 (stereo not drawn)	inactive: -6%	
COc1cc(NC(=O)COC(=O)/C=C/c2ccc(OC)c(OC)c2)cc(OC)c1		inconclusive: 0.891 µM [inhibitor, single point]
